Here are results for 31 molecules from article PMC9911399, “Two distinct binding modes provide the RNA-binding protein RbFox with extraordinary sequence specificity”.

To fix the notation:
B1: AUGAAAU (DNA:RNA)
RNA: GGGAGACCGGAAUUCAGAUUGUCCAUGAAAUUUAAAUCCCGUCGUAGCCACCA
DNA 1: CAATCTGAATTCCGGTCTCCC
DNA 2: TGGTGGCTACGACGGGATT
B2: GGGCUAA (DNA:RNA)
RNA: B1 RNA with A25G, U26G, A28C, A29U, U31A
DNA 1: CAATCTGAATTCCGGTCTCCC
DNA 2: TGGTGGCTACGACGGGATT
B3: UCACCUC (DNA:RNA)
RNA: GGGAGACCGGAAUUCAGAUUGUCCUCACCUCUUAAAUCCCGUCGUAGCCACCA
DNA 1: CAATCTGAATTCCGGTCTCCC
DNA 2: TGGTGGCTACGACGGGATT
B4: UAAACCC (DNA:RNA)
RNA: B3 RNA with C26A, C28A, U30C
DNA 1: CAATCTGAATTCCGGTCTCCC
DNA 2: TGGTGGCTACGACGGGATT
B5: UGGCCGU (DNA:RNA)
RNA: B3 RNA with C26G, A27G, U30G, C31U
DNA 1: CAATCTGAATTCCGGTCTCCC
DNA 2: TGGTGGCTACGACGGGATT
B6: CCCAAUC (DNA:RNA)
RNA: B3 RNA with U25C, A27C, C28A, C29A
DNA 1: CAATCTGAATTCCGGTCTCCC
DNA 2: TGGTGGCTACGACGGGATT
B7: GAUCAUU (DNA:RNA)
RNA: B1 RNA with A25G, U26A, G27U, A28C, A30U
DNA 1: CAATCTGAATTCCGGTCTCCC
DNA 2: TGGTGGCTACGACGGGATT
B8: GACUGUU (DNA:RNA)
RNA: B1 RNA with A25G, U26A, G27C, A28U, A29G, A30U
DNA 1: CAATCTGAATTCCGGTCTCCC
DNA 2: TGGTGGCTACGACGGGATT
B9: UGUAUGC (DNA:RNA)
RNA: B3 RNA with C26G, A27U, C28A, C29U, U30G
DNA 1: CAATCTGAATTCCGGTCTCCC
DNA 2: TGGTGGCTACGACGGGATT
B10: AAGUGAC (DNA:RNA)
RNA: B1 RNA with U26A, A28U, A29G, U31C
DNA 1: CAATCTGAATTCCGGTCTCCC
DNA 2: TGGTGGCTACGACGGGATT
B11: UGGUCGG (DNA:RNA)
RNA: B3 RNA with C26G, A27G, C28U, U30G, C31G
DNA 1: CAATCTGAATTCCGGTCTCCC
DNA 2: TGGTGGCTACGACGGGATT
B12: CGGAUGC (DNA:RNA)
RNA: B1 RNA with A25C, U26G, A29U, A30G, U31C
DNA 1: CAATCTGAATTCCGGTCTCCC
DNA 2: TGGTGGCTACGACGGGATT
B13: CAUAUAG (DNA:RNA)
RNA: B1 RNA with A25C, U26A, G27U, A29U, U31G
DNA 1: CAATCTGAATTCCGGTCTCCC
DNA 2: TGGTGGCTACGACGGGATT
B14: CCCGUGG (DNA:RNA)
RNA: B3 RNA with U25C, A27C, C28G, C29U, U30G, C31G
DNA 1: CAATCTGAATTCCGGTCTCCC
DNA 2: TGGTGGCTACGACGGGATT
B15: UAAUAGU (DNA:RNA)
RNA: B1 RNA with A25U, U26A, G27A, A28U, A30G
DNA 1: CAATCTGAATTCCGGTCTCCC
DNA 2: TGGTGGCTACGACGGGATT
B16: CCUUGUU (DNA:RNA)
RNA: B3 RNA with U25C, A27U, C28U, C29G, C31U
DNA 1: CAATCTGAATTCCGGTCTCCC
DNA 2: TGGTGGCTACGACGGGATT
B17: AUGGCGU (DNA:RNA)
RNA: B1 RNA with A28G, A29C, A30G
DNA 1: CAATCTGAATTCCGGTCTCCC
DNA 2: TGGTGGCTACGACGGGATT
B18: UUAAGUA (DNA:RNA)
RNA: B3 RNA with C26U, C28A, C29G, C31A
DNA 1: CAATCTGAATTCCGGTCTCCC
DNA 2: TGGTGGCTACGACGGGATT
B19: GCAACCA (DNA:RNA)
RNA: B3 RNA with U25G, C28A, U30C, C31A
DNA 1: CAATCTGAATTCCGGTCTCCC
DNA 2: TGGTGGCTACGACGGGATT
B20: CUUACUA (DNA:RNA)
RNA: B1 RNA with A25C, G27U, A29C, A30U, U31A
DNA 1: CAATCTGAATTCCGGTCTCCC
DNA 2: TGGTGGCTACGACGGGATT
B21: GGCCACG (DNA:RNA)
RNA: B1 RNA with A25G, U26G, G27C, A28C, A30C, U31G
DNA 1: CAATCTGAATTCCGGTCTCCC
DNA 2: TGGTGGCTACGACGGGATT
B22: UGCAACA (DNA:RNA)
RNA: B1 RNA with A25U, U26G, G27C, A30C, U31A
DNA 1: CAATCTGAATTCCGGTCTCCC
DNA 2: TGGTGGCTACGACGGGATT
B23: CUACUAU (DNA:RNA)
RNA: B1 RNA with A25C, G27A, A28C, A29U
DNA 1: CAATCTGAATTCCGGTCTCCC
DNA 2: TGGTGGCTACGACGGGATT
B24: ACUAUUG (DNA:RNA)
RNA: B1 RNA with U26C, G27U, A29U, A30U, U31G
DNA 1: CAATCTGAATTCCGGTCTCCC
DNA 2: TGGTGGCTACGACGGGATT
B25: AAGAUCA (DNA:RNA)
RNA: B1 RNA with U26A, A29U, A30C, U31A
DNA 1: CAATCTGAATTCCGGTCTCCC
DNA 2: TGGTGGCTACGACGGGATT
B26: AUACCCC (DNA:RNA)
RNA: B3 RNA with U25A, C26U, U30C
DNA 1: CAATCTGAATTCCGGTCTCCC
DNA 2: TGGTGGCTACGACGGGATT
B27: GAGAGUA (DNA:RNA)
RNA: B1 RNA with A25G, U26A, A29G, A30U, U31A
DNA 1: CAATCTGAATTCCGGTCTCCC
DNA 2: TGGTGGCTACGACGGGATT
B28: CCCGUGC (DNA:RNA)
RNA: B3 RNA with U25C, A27C, C28G, C29U, U30G
DNA 1: CAATCTGAATTCCGGTCTCCC
DNA 2: TGGTGGCTACGACGGGATT
B29: AGCAACA (DNA:RNA)
RNA: B1 RNA with U26G, G27C, A30C, U31A
DNA 1: CAATCTGAATTCCGGTCTCCC
DNA 2: TGGTGGCTACGACGGGATT
B30: GGGGCCA (DNA:RNA)
RNA: B1 RNA with A25G, U26G, A28G, A29C, A30C, U31A
DNA 1: CAATCTGAATTCCGGTCTCCC
DNA 2: TGGTGGCTACGACGGGATT
B31: GAGACCA (DNA:RNA)
RNA: B1 RNA with A25G, U26A, A29C, A30C, U31A
DNA 1: CAATCTGAATTCCGGTCTCCC
DNA 2: TGGTGGCTACGACGGGATT

Residue numbers refer to the chain shown, from its start. Some of the results follow.

This assay deals with T1, RBFOX1 RRM RbFoxmut (Fox-RRM*) (Homo sapiens, UniProt Q9NWB1 109-208, R118D;E147R;N151S;E152T).
T1 sequence: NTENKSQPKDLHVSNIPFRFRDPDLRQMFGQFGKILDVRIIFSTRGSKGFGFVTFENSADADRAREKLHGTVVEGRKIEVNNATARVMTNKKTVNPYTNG
Nature of the assay: EMSA; HiTS-Eq, 1 nM pool, 10 min; buffer printed only for the single-RNA assays: 10 mM Tris pH 7.5, 150 mM NaCl, 3.4 mM EDTA, 0.001% NP-40, 30 C. As to conditions: tags: His6 N-terminal (pET28a); label: 5' 32P. In outline: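 Relative association constants, normalised to the cognate motif, were derived by comparing read counts of each RNA species with those of the control reaction. The RNA sequenced was the free fraction, separated by 8% native PAGE after a 10 min equilibration in 50 µL of 1 nM 5′-radiolabelled RNA (7 randomized nucleotides) with increasing concentrations of purified wild-type or mutant RbFox RRM.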
(In general: A gel shift assay detects complexes by their altered migration in electrophoresis.)
B1: the binding signal is 0.104 KA relative to UGCAUGU.
The figure for B2 is 0.0817 KA relative to UGCAUGU; for B3 it is 0.0699 KA relative to UGCAUGU.
Consider B4, for which the binding signal is 0.0742 KA relative to UGCAUGU.
With B5 the figure was 0.174 KA relative to UGCAUGU.
With B6, the binding signal is 0.0536 KA relative to UGCAUGU.
As for B7, the binding signal is 0.0595 KA relative to UGCAUGU.
With B8 the figure was 0.173 KA relative to UGCAUGU; with B9, 0.684 KA relative to UGCAUGU; with B10, 0.0758 KA relative to UGCAUGU.
With B11 the figure was 0.163 KA relative to UGCAUGU.
With B12 the figure was 0.189 KA relative to UGCAUGU; with B13, 0.152 KA relative to UGCAUGU.
With B14, the binding signal was 0.0686 KA relative to UGCAUGU.
With B15 the figure was 0.0472 KA relative to UGCAUGU; with B16, 0.0862 KA relative to UGCAUGU; with B17, 0.147 KA relative to UGCAUGU.
With B18 the figure was 0.121 KA relative to UGCAUGU; with B19, 0.0549 KA relative to UGCAUGU.
For B20, the binding signal is 0.113 KA relative to UGCAUGU.
On to B21, for which the binding signal is 0.0894 KA relative to UGCAUGU.
For the molecule B22, the binding signal is 0.106 KA relative to UGCAUGU.
For B23, the binding signal was 0.0859 KA relative to UGCAUGU.
With B24 the figure was 0.149 KA relative to UGCAUGU; with B25, 0.081 KA relative to UGCAUGU.
As to B26, the binding signal was 0.0789 KA relative to UGCAUGU.
With B27 the figure was 0.143 KA relative to UGCAUGU.
With B28, the binding signal is 0.108 KA relative to UGCAUGU.
With B29 the figure was 0.081 KA relative to UGCAUGU; with B30, 0.101 KA relative to UGCAUGU.
The figure for B31 is 0.0628 KA relative to UGCAUGU.
